About 7,200 (1.8%) of roughly 410,000 compounds were called active. This list was built around the results that the source calls inconclusive (neither active nor inactive); the mix of calls is not that of the screen. Calls come from the whole dose curve; as a rule, active = well fitted activation curve with a large enough effect; inconclusive = small, poorly fitted or top-dose-only effect, or another doubt; inactive = no such curve, though single readings can be large or run the other way. Potencies of inconclusive entries are left out as doubtful fits.
Experiment: qHTS of TDP-43 Inhibitors; note: nearly all actives have a fitted effect of over 50% in size
Details: TDP-43 expressing yeast growth rescue, BacTiter-Glo, 24 h; series mostly up to 46.1 µM
Outline: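 Galactose-induced TDP-43 yeast, OD600=0.02, compound pinned; 24 hr, 30 deg C; BacTiter-Glo luminescence for growth. Inhibitors of TDP-43 toxicity read as activators.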
Potency is the fitted concentration of half-maximal effect; tags give direction and shape of the fitted curve.

Structure (SMILES)	Potency
O=C(Nc1nccs1)c1ccc(-c2ccc(F)c(Cl)c2)o1	active: 12.6 µM
CCOC(=O)c1sc(=S)n(C)c1C	inconclusive [activator, single point]
CC(=O)Oc1ccc(N2C(=O)C3C4C=CC(C5CC45)C3C2=O)cc1[N+](=O)[O-] (stereo not drawn)	inconclusive [activator, partial curve]
O=C(Nc1ccc2c(c1)OCCO2)C1CCN(S(=O)(=O)c2ccc(Br)s2)CC1	inconclusive [activator, partial curve]
Cc1cc(C)nc(-n2ncc3c2CC(c2cccc(Cl)c2)CC3=O)n1 (stereo not drawn)	inconclusive [activator, single point]
CCOC(=O)CSc1nnc2c3ccccc3n(CC)c2n1	inconclusive [activator, partial curve]
OC(c1ccc(F)cc1)c1ncc(-c2cccc(C(F)(F)F)c2)[nH]1 (stereo not drawn)	inconclusive [activator, full curve]
C=CCN1C(=O)C(Cc2ccc(OCC)cc2)SC1=Nc1ccc(C(=O)O)cc1 (stereo not drawn)	inconclusive [activator, single point]
CCOC(=O)c1c(NC(=O)COc2ccc(Br)cc2)sc2c1CCCC2	inactive
COc1ccc(Cn2c(CCC(=O)Nc3ccc(C)cc3)nc3cccnc32)cc1	inconclusive [activator, partial curve]
COc1ccc(NC(=O)O/N=C/c2c(C)nn(C(C)(C)C)c2C)cc1	inconclusive [activator, single point]
O=C(Oc1ccc(Br)cc1C(=O)/C=C/c1ccccc1F)c1ccco1	inconclusive [activator, single point]
COc1ccccc1C(=O)NCCC(=O)N1CCN(c2ccccc2Cl)CC1	inconclusive [activator, partial curve]
CC1(Cc2ccccc2OC(F)(F)F)C(=O)Nc2ccc(S(=O)(=O)NC3CCCCC3)cc21 (stereo not drawn)	inactive
O=C(c1ccccc1)c1ccc(O)cc1O	inconclusive [activator, single point]
C=CCn1c(O)c(N=NC(=O)CNC(=O)c2ccco2)c2ccccc21	inactive
CCc1cc2c(NCc3ccccc3)nc(C)nc2s1	inconclusive [activator, single point]
COc1ccc2cc3cc(C(=O)N4CC(C)CC(C)C4)oc3nc2c1 (stereo not drawn)	inconclusive [activator, partial curve]
O=C(COC(=O)Cc1cccs1)Nc1ccccc1F	inconclusive [activator, partial curve]
CC1CCN(S(=O)(=O)c2ccc3c(c2)CC(C)N3C(=O)C2CCC2)CC1 (stereo not drawn)	active: 17.8 µM
Cc1ccccc1-n1nc(C)c2c1N=C1C(Cl)=CC(Cl)=CN1C2c1ccc(C(=O)O)cc1 (stereo not drawn)	inconclusive [activator, single point]
CCc1c(C)[nH]n(-c2nc(-c3ccccc3)cs2)c1=O	inconclusive [activator, partial curve]

Structure (SMILES)	Potency
CCC(=O)NC(=S)Nc1ccc(NC(=O)COc2ccccc2)cc1	inconclusive [activator, full curve]
COc1ccccc1C1(O)CCN(CC(=O)Nc2nc(-c3ccccc3)cs2)CC1	inconclusive [activator, partial curve]
COc1ccc(-c2nc(CS(=O)CC(=O)NCc3cccnc3)c(C)o2)cc1 (stereo not drawn)	inconclusive [activator, full curve]
Cc1cccc(NC(=O)Cn2ncc3c4ccccc4n(Cc4ccccc4)c3c2=O)c1C	inconclusive [activator, full curve]
COc1ccc(C(=O)N2CCC(c3nc4ccccc4s3)CC2)cc1Cl	inconclusive [activator, single point]
O=[N+]([O-])c1ccc2[nH]nc(-c3ccccc3)c2c1	active: 5.62 µM
NC(=O)c1ccsc1NC(=O)c1cccs1	inconclusive [activator, partial curve]
Cc1ccc(S(=O)(=O)N/N=C/c2ccc(OCC(=O)Nc3ccccc3Cl)cc2)cc1	inconclusive [activator, single point]
COc1ccccc1NC(=O)CSc1nnc(NC(=O)NC2CCCCC2)s1	inactive
COC(=O)[C@]12CCCCC=C1N(CCC1=CCCCC1)C(=O)[C@H](CC(=O)NCCc1ccccc1OC)C2	inconclusive [activator, single point]
Cc1ccc(OC(=O)c2ccncc2)c(C)c1	inconclusive [activator, partial curve]
CC(=O)c1ccc(Cc2ccc(C(C)=O)s2)s1	inconclusive [activator, partial curve]
Cc1ccc(N2CC(c3nc(-c4ccc(Cl)cc4)no3)CC2=O)cc1F (stereo not drawn)	inactive
O=C(CSc1ccc(-c2ccco2)nn1)NCc1ccccc1Cl	inconclusive [activator, single point]
O=[N+]([O-])c1cnccc1Nc1cccc(F)c1	inconclusive [activator, partial curve]
Cc1cc(C(=O)CSc2ccc(F)cc2)cc(C)c1O	inconclusive [activator, single point]
Cc1cccc(-n2nnc(C(=O)NC3CCCc4ccccc43)c2N)c1 (stereo not drawn)	active: 15.8 µM
COc1cc(/C=N/O)cc(Br)c1OCc1cccc(Cl)c1	inconclusive [activator, single point]
C[C@@H]1CN([C@H](C)CO)C(=O)CCCn2cc(nn2)CO[C@H]1CN(C)C(=O)Nc1cccc(C(F)(F)F)c1	inconclusive [activator, partial curve]
O=C(Nc1nccs1)c1csc2c1CCCC2	inconclusive [activator, single point]
CC(=O)NC(c1ccc(F)c(F)c1)c1nc(-c2cc3ccccc3o2)cs1 (stereo not drawn)	inconclusive [activator, partial curve]

Source: PubChem BioAssay AID652104 (National Center for Advancing Translational Sciences (NCATS), 2013)
